# Experimental data as given in PubChem BioAssay AID2546 (National Center for Advancing Translational Sciences (NCATS), 2010).
# Out of some 310,000 compounds screened, about 11,000 (3.5%) were called active. This list was built around the results that the source calls inconclusive (neither active nor inactive); the mix of calls is not that of the screen. Calls come from the whole dose curve; as a rule, active = well fitted inhibition curve with a large enough effect; inconclusive = small, poorly fitted or top-dose-only effect, or effect the other way; inactive = flat fitted curve, though single readings scatter. No potency is given beside an inconclusive call; the fits are too rough.
# Assay: VP16 counterscreen qHTS for inhibitors of ROR gamma transcriptional activity;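 note: Gal4-VP16 expression switched on by copper sulfate through the metallothionein promoter; nearly all actives have a fitted effect of over 50% in size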
# Details: Drosophila S2 Gal4-VP16 UAS-luciferase, luminescence, 20 h; activity, negative = inhibition: at 53.6 µM (top of the series)
# % is set by controls: 0 for no effect and ±100 for the full control effect; potency is the fitted concentration of half-maximal effect; tags give direction and shape of the fitted curve.
Structure (SMILES),Potency,"activity, negative = inhibition"
CCCCNCC(=O)Nc1sc(C)c(C)c1C(=O)OCC,"inconclusive [inhibitor, single point]",–
CN(C)CCCNc1c2ccccc2nc2ccccc12,"inconclusive [inhibitor, partial curve]",–
Cc1ccc(CNC(=O)c2ccc(N3CCC4(CC3)CC(c3ccccc3)=NO4)c(N)c2)cc1,"inconclusive [inhibitor, single point]",–
COC(=O)c1cc2occc2n1Cc1nc(-c2ccc(Cl)cc2)oc1C,–,inactive: -1.86%
Cc1nc(N2CCN(Cc3nc4ccccc4[nH]3)CC2)c2oc3ccccc3c2n1,–,inactive: -10.3%
Cc1ccc2nc(NCCCO)nc(-c3ccccc3)c2c1,–,inactive: 2.24%
CC[n+]1c(/C=C(\C)Nc2ccccc2)sc2ccccc21,–,inactive: 4%
CSc1ncc(C(=O)Nc2ccc(Br)cn2)c(C)n1,"inconclusive [activator, partial curve]",–
N#Cc1c(-c2cccc(Br)c2)cc(-c2ccco2)[nH]c1=O,–,inactive: 1.11%
Cc1nc(Nc2ccc(F)cc2)[nH]c(=O)c1CCC(C)C,"inconclusive [inhibitor, single point]",–
CCN1CCN(Cc2ccc(NC(=O)c3cc(NC(=O)C(=O)c4c[nH]c5ccccc45)cc(OC)c3)cc2C(F)(F)F)CC1,"inconclusive [inhibitor, single point]",–
CCCn1c(=O)c(C(=O)Nc2cccc(C)n2)c(O)c2ccccc21,"inconclusive [activator, single point]",–
Cc1cccc(NC(=O)c2ccc(OC3CSC3)cc2)c1,"inconclusive [inhibitor, single point]",–
Cc1nc(CN2CCN(C(=O)c3ccc(C(C)(C)C)cc3)CC2)cs1,"inconclusive [inhibitor, single point]",–
Cc1cc(Cl)ccc1NC(=O)CSc1nnc(Cc2cccs2)n1Cc1ccco1,"inconclusive [inhibitor, single point]",–
CCOc1ccc(N(CC(=O)Nc2ccc(C)c(C)c2)S(=O)(=O)c2c(C)noc2C)cc1,"inconclusive [inhibitor, single point]",–
CSc1ccc(NC(=O)Nc2ccc(C(=O)NCC(=O)O)cc2)cc1,–,inactive: -16.2%
CC1(C)N([O-])c2cc([N+](=O)[O-])ccc2[N+]1=O,"inconclusive [inhibitor, single point]",–
Cc1cc(C)c(Nc2cc(S(=O)(=O)O)c(N)c3c2C(=O)c2ccccc2C3=O)c(C)c1,"inconclusive [inhibitor, partial curve]",–
c1ccc(C2Nc3cccc4cccc(c34)N2)cc1,–,inactive: -21%
O=C(OCC(=O)N1CCCCCC1)c1ccc(S(=O)(=O)N2CCOCC2)cc1,–,inactive: -9.71%
CC(=O)N(C1=C(Cl)C(=O)c2ccccc2C1=O)C1CCCCC1,active: 11.2 µM,–
COCCn1cnc2c(c1=O)c1nc3ccccc3nc1n2/N=C/c1cccc(OC)c1,"inconclusive [inhibitor, single point]",–
CC(=O)COC(=O)CCc1nc2ccccc2[nH]c1=O,–,inactive: -4.56%

Structure (SMILES),Potency,"activity, negative = inhibition"
COc1ccc(NC2=C(c3ccc(OC)cc3)C(=O)c3ccccc32)cc1,"inconclusive [inhibitor, partial curve]",–
CCc1n[nH]c(=S)n1/N=C/c1ccc(N(C)c2ccccc2)cc1,"inconclusive [inhibitor, single point]",–
Cc1nn(CCc2n[nH]c(=S)n2-c2ccc(F)c(Cl)c2)c(C)c1[N+](=O)[O-],"inconclusive [inhibitor, partial curve]",–
COC(=O)C/C=C\[C@@H](C)[C@H]1C=C[C@H](O)[C@@H](CO)O1,–,inactive: 3.68% [at 10 µM]
O=C(COc1ccc(C(=O)c2ccccc2)cc1)NCC1CCCCC1,"inconclusive [inhibitor, single point]",–
Cc1ccc(C2NNC(=O)C2NC(=O)c2ccccc2)cc1 (configuration not stated),–,inactive: 16.9%
COc1ccc(C(=O)Nc2nccs2)cc1OC,"inconclusive [inhibitor, single point]",–
O=Cc1ccc(-c2nc3ccccc3s2)o1,active: 7.94 µM,–
COc1ccc(N2CCN(C(=O)CNC(=O)Cc3ccc(Cl)cc3)CC2)cc1,–,inactive: -3.38%
C(=N\c1ncnc2sccc12)/NOCc1ccccc1,"inconclusive [inhibitor, single point]",–
CCOc1ccc(S(=O)(=O)Nc2cnc3ccccc3c2)cc1,active: 6.31 µM,–
CCOc1ccc(NC(=S)NNC(=O)c2ccc(Br)cc2)cc1,–,inactive: -3.82%
COc1cccc2sc(Nc3nnc(-c4ccccc4Cl)o3)nc12,active: 2.51 µM,–
S=c1[nH]nc(Cc2ccccc2)n1Cc1ccco1,active: 12.6 µM,–
Cn1c(=O)c2[nH]c(COc3ccc(C(C)(C)C)cc3)nc2n(C)c1=O,"inconclusive [inhibitor, single point]",–
NNC(=O)c1cc2ccccc2cc1O,"inconclusive [inhibitor, single point]",–
COCCNC(=O)CCc1nnc(Cc2ccc(-c3ccccc3)cc2)o1,"inconclusive [inhibitor, single point]",–
O=C(NC(=S)Nc1nc2ccccc2s1)c1ccco1,active: 1.26 µM,–
N#CC1=C(S)N(c2ccccc2)C(c2ccc(-c3ccccc3Cl)o2)NC1=O (configuration not stated),"inconclusive [inhibitor, single point]",–
COC(=O)CC1=C(C(=O)OC)C(c2ccc3c(c2Cl)OCO3)C(C#N)=C(N)O1 (configuration not stated),"inconclusive [activator, single point]",–
Cc1ccc2nc(NCCN)c3ncc(C)n3c2c1,"inconclusive [inhibitor, partial curve]",–
O=C(N/N=C/c1cn(-c2ccccc2)nc1-c1cccs1)c1ccc(Cl)cc1,active: 5.01 µM,–
COc1ccc(NC(=S)N(CCc2nc3cc(C)c(C)cc3[nH]2)Cc2cccnc2)cc1,"inconclusive [inhibitor, single point]",–
